# In the supplement of paper PMC8728848:
# The other results are listed elsewhere or left out.
# B1: CD83 (Homo sapiens) (protein)
# chain: MSRGLQLLLLSCAYSLAPATPEVKVACSEDVDLPCTAPWDPQVPYTVSWVKLLEGGEERMETPQEDHLRGQHYHQKGQNGSFDAPNERPYSLKIRNTTSCNSGTYRCTLQDPDGQRNLSGKVILRVTGCPAQRKEETFKKYRAETSEQKLISEEDLSRGSDDDDKAEPRGP
# Legend:
# Experiment in all cases: glycan array binding signal (z-score within array); higher = stronger binding
# Settings in all cases: glycan notation: IUPAC condensed, linker removed
# Gal3S4S(b1-4)GlcNAc = molecular target: Gal3S4S(b1-4)GlcNAc
# Summary of the method: (§1)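 Glycan array binding is given as a within-array Z-score, which can be read as non-binding when negative. The arrays, 3228 of them, came from the Consortium for Functional Glycomics database and were retained only where the protein sequence was available. Z-scores were averaged across arrays of the same protein sequence at different concentrations or buffers and across linkers.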
# Gal3S6S(b1-4)GlcNAc = molecular target: Gal3S6S(b1-4)GlcNAc
# Summary of the method: as §1
# Gal3S6S(b1-4)GlcNAc6S = molecular target: Gal3S6S(b1-4)GlcNAc6S
# Summary of the method: as §1
# Gal4S(b1-4)GlcNAc = molecular target: Gal4S(b1-4)GlcNAc
# Summary of the method: as §1
# Gal4S6S(b1-4)GlcNAc = molecular target: Gal4S6S(b1-4)GlcNAc
# Summary of the method: as §1
# Gal6S(b1-4)Glc = molecular target: Gal6S(b1-4)Glc
# Summary of the method: as §1
# Gal6S(b1-4)Glc6S = molecular target: Gal6S(b1-4)Glc6S
# Summary of the method: as §1
# Gal6S(b1-4)GlcNAc = molecular target: Gal6S(b1-4)GlcNAc
# Summary of the method: as §1
# Gal6S(b1-4)GlcNAc6S = molecular target: Gal6S(b1-4)GlcNAc6S
# Summary of the method: as §1
# GalNAc(a1-3)Gal = molecular target: GalNAc(a1-3)Gal
# Summary of the method: as §1
# GalNAc(a1-3)GalNAc = molecular target: GalNAc(a1-3)GalNAc
# Summary of the method: as §1
# GalNAc(b1-3)Gal = molecular target: GalNAc(b1-3)Gal
# Summary of the method: as §1
# [1] = molecular target: GalNAc(b1-3)Gal(a1-4)Gal(b1-4)GlcNAc
# Summary of the method: as §1
# GalNAc(b1-3)GalNAc = molecular target: GalNAc(b1-3)GalNAc
# Summary of the method: as §1
# GalNAc(b1-4)GlcNAc = molecular target: GalNAc(b1-4)GlcNAc
# Summary of the method: as §1
# Glc(a1-4)Glc = molecular target: Glc(a1-4)Glc
# Summary of the method: as §1
# Glc(a1-6)Glc(a1-6)Glc = molecular target: Glc(a1-6)Glc(a1-6)Glc
# Summary of the method: as §1
# Glc(b1-4)Glc = molecular target: Glc(b1-4)Glc
# Summary of the method: as §1
# Glc(b1-6)Glc = molecular target: Glc(b1-6)Glc
# Summary of the method: as §1
# GlcA(b1-3)Gal = molecular target: GlcA(b1-3)Gal
# Summary of the method: as §1
# GlcA(b1-3)GlcNAc = molecular target: GlcA(b1-3)GlcNAc
# Summary of the method: as §1
# GlcA(b1-6)Gal = molecular target: GlcA(b1-6)Gal
# Summary of the method: as §1
# [2] = molecular target: GlcNAc(a1-3)Gal(b1-4)GlcNAc
# Summary of the method: as §1
# [3] = molecular target: GlcNAc(a1-6)Gal(b1-4)GlcNAc
# Summary of the method: as §1
# [4] = molecular target: GlcNAc(b1-2)Gal(b1-3)GalNAc
# Summary of the method: as §1
# [5] = molecular target: GlcNAc(b1-2)Man(a1-3)[GlcNAc(b1-2)Man(a1-6)]Man(b1-4)GlcNAc(b1-4)GlcNAc
# Summary of the method: as §1
# GlcNAc(b1-3)Gal = molecular target: GlcNAc(b1-3)Gal
# Summary of the method: as §1
# [6] = molecular target: GlcNAc(b1-3)Gal(b1-3)GalNAc
# Summary of the method: as §1
# GlcNAc(b1-3)Gal(b1-4)Glc = molecular target: GlcNAc(b1-3)Gal(b1-4)Glc
# Summary of the method: as §1
# [7] = molecular target: GlcNAc(b1-3)Gal(b1-4)GlcNAc
# Summary of the method: as §1
# [8] = molecular target: GlcNAc(b1-3)Gal(b1-4)GlcNAc(b1-3)Gal(b1-4)GlcNAc
# Summary of the method: as §1
# GlcNAc(b1-3)GalNAc = molecular target: GlcNAc(b1-3)GalNAc
# Summary of the method: as §1
# GlcNAc(b1-3)Man = molecular target: GlcNAc(b1-3)Man
# Summary of the method: as §1
# [9] = molecular target: GlcNAc(b1-3)[GlcNAc(b1-4)][GlcNAc(b1-6)]GlcNAc
# Summary of the method: as §1
# [10] = molecular target: GlcNAc(b1-3)[GlcNAc(b1-6)]Gal(b1-4)GlcNAc
# Summary of the method: as §1
# [11] = molecular target: GlcNAc(b1-3)[GlcNAc(b1-6)]GalNAc
# Summary of the method: as §1
# [12] = molecular target: GlcNAc(b1-3)[GlcNAc(b1-6)]GlcNAc(b1-4)GlcNAc
# Summary of the method: as §1
# [13] = molecular target: GlcNAc(b1-4)Gal(b1-4)GlcNAc
# Summary of the method: as §1
binder,measurement,setting,value
B1,glycan array binding signal (z-score),Gal3S4S(b1-4)GlcNAc,0.804
same,glycan array binding signal (z-score),Gal3S6S(b1-4)GlcNAc,-0.416
same,glycan array binding signal (z-score),Gal3S6S(b1-4)GlcNAc6S,-0.129
same,glycan array binding signal (z-score),Gal4S(b1-4)GlcNAc,-0.406
same,glycan array binding signal (z-score),Gal4S6S(b1-4)GlcNAc,-0.047
same,glycan array binding signal (z-score),Gal6S(b1-4)Glc,-0.191
same,glycan array binding signal (z-score),Gal6S(b1-4)Glc6S,-0.135
same,glycan array binding signal (z-score),Gal6S(b1-4)GlcNAc,0.098
same,glycan array binding signal (z-score),Gal6S(b1-4)GlcNAc6S,-0.075
same,glycan array binding signal (z-score),GalNAc(a1-3)Gal,-0.221
same,glycan array binding signal (z-score),GalNAc(a1-3)GalNAc,-0.329
same,glycan array binding signal (z-score),GalNAc(b1-3)Gal,-0.064
same,glycan array binding signal (z-score),[1],0.235
same,glycan array binding signal (z-score),GalNAc(b1-3)GalNAc,-0.419
same,glycan array binding signal (z-score),GalNAc(b1-4)GlcNAc,-0.199
same,glycan array binding signal (z-score),Glc(a1-4)Glc,-0.39
same,glycan array binding signal (z-score),Glc(a1-6)Glc(a1-6)Glc,-0.051
same,glycan array binding signal (z-score),Glc(b1-4)Glc,-0.371
same,glycan array binding signal (z-score),Glc(b1-6)Glc,-0.153
same,glycan array binding signal (z-score),GlcA(b1-3)Gal,-0.045
same,glycan array binding signal (z-score),GlcA(b1-3)GlcNAc,0.06
same,glycan array binding signal (z-score),GlcA(b1-6)Gal,-0.18
same,glycan array binding signal (z-score),[2],-0.289
same,glycan array binding signal (z-score),[3],-0.256
same,glycan array binding signal (z-score),[4],-0.273
same,glycan array binding signal (z-score),[5],-0.146
same,glycan array binding signal (z-score),GlcNAc(b1-3)Gal,-0.447
same,glycan array binding signal (z-score),[6],-0.182
same,glycan array binding signal (z-score),GlcNAc(b1-3)Gal(b1-4)Glc,-0.248
same,glycan array binding signal (z-score),[7],-0.162
same,glycan array binding signal (z-score),[8],-0.187
same,glycan array binding signal (z-score),GlcNAc(b1-3)GalNAc,-0.264
same,glycan array binding signal (z-score),GlcNAc(b1-3)Man,-0.188
same,glycan array binding signal (z-score),[9],0.09
same,glycan array binding signal (z-score),[10],-0.131
same,glycan array binding signal (z-score),[11],-0.453
same,glycan array binding signal (z-score),[12],-0.62
same,glycan array binding signal (z-score),[13],0.024
